The supplement of paper PMC3334620
In all, about 33,000 sequences were measured (“E-score (-0.5 to 0.5)”: median about -0.035, highest 2% from about 0.35 on). Some of the results follow.

biological target: T1, Pdr3 (UniProt P33200); test: PBM E-score (8-mer binding enrichment) (E-score (-0.5 to 0.5)); higher = stronger / more preferred TF binding; most listed sequences are background and not binding sites; settings: protein concentration: 200 nM; construct: GST-full length
T1 sequence: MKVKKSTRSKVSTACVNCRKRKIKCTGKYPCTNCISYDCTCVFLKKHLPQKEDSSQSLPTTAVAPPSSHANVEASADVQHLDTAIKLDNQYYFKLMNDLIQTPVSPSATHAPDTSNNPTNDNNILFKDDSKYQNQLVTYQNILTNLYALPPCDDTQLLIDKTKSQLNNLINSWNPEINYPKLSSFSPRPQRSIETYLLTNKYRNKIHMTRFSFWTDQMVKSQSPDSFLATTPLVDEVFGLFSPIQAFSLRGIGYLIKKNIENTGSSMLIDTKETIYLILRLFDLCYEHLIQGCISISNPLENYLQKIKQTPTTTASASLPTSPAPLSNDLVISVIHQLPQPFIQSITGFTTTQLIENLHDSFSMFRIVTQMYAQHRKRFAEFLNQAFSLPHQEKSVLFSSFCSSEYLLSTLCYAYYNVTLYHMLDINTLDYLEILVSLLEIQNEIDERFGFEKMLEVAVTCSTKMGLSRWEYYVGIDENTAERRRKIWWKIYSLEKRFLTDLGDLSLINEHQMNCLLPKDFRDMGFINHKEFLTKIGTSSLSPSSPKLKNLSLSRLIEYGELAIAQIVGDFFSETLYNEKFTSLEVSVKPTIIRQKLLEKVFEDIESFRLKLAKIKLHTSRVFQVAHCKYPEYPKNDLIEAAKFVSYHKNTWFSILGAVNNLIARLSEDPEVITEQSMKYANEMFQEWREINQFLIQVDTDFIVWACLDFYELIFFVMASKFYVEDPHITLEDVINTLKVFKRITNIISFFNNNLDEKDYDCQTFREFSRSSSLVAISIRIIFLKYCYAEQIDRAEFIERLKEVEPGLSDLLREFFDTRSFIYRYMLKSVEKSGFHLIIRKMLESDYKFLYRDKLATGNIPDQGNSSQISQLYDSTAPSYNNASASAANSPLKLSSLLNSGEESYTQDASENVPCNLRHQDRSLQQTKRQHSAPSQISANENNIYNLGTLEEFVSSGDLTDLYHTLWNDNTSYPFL
How it was run: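 The E-score, a modified Wilcoxon-Mann-Whitney statistic, was computed by the Universal PBM Analysis Suite for every ungapped eight-base word pooled with its reverse complement. Scans behind it were normalised with masliner after bound GST-tagged yeast transcription factors were detected with fluorescent anti-GST. The proteins, at about 100-200 nM, had been applied to universal all-10-mer Agilent arrays made double-stranded by primer extension.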

Sequence	PBM E-score
AGACAATG	-0.163
CATATATA	0.0759
GAGCTACA	-0.234
AGGGACCC	-0.102
CCTGAGAC	-0.15
ACGATCGG	0.16
CGCCGTTC	0.169
TCCTTTCA	-0.0791
AGTAAAGC	0.00206
CGTAAGTA	0.00313
AGATAAGC	-0.217
CCCAAAGG	0.0134
CTCACATC	-0.107
AGTAAGCC	-0.129
ATTTCGCA	0.18
AAGGTCTG	-0.0978
CCAATTCG	-0.0707
CCTCTTAA	0.0409
CATTGCTA	-0.0336
CCACTACA	-0.0918
AGGGAGAA	-0.0563
CAACCAAA	0.105
AACTCTAC	-0.221
ACAAGTAG	-0.144
ACCATCTG	-0.0967

Sequence	PBM E-score
CCTTCCTA	-0.401
AGAACGCG	0.192
CCAGGAAA	-0.0248
CGCGCGAA	0.241
CGCTTCTA	-0.157
TGCTAGCA	-0.00367
GCACACTA	0.0604
GCGTTTAA	-0.139
CCGCCTTC	0.0869
AAGTGCGA	-0.122
CCCGAAGG	0.116
CCACTGTC	-0.252
AGTTAAAG	-0.13
CTCAGCAA	-0.0842
AACACATG	-0.0727
CAGGGCTA	-0.258
AGTCTATA	-0.247
AATTAAAG	-0.0208
ACCGTGGC	-0.107
ATGATGAC	0.056
AATCAAAG	-0.129
AAGCGAAA	-0.0467
GACGGCGA	-0.0462
ACATTCCG	0.439
AACGAAGT	-0.343

Sequence	PBM E-score
GGGCAATA	0.14
ATATCAGC	0.0261
CGACTTTA	-0.0965
TGAATGAA	-0.00047
AAAGACGG	0.0911
AACGTGTA	-0.218
GCGGTGTA	0.00159
AGATACCT	-0.075
CTAGAAAG	-0.189
CTAAACTC	-0.129
TCATTACA	-0.0495
ATTACATA	-0.191
AGATTACT	-0.0748
CGGGCAGA	0.341
CACTCAAA	-0.0687
GAACAACA	-0.0517
AGAAGACG	0.00213
CAGTGCGG	0.206
CTTTCTAC	-0.16
CATCAATC	0.0811
AGTGTGTG	-0.0302
GAGGAACC	0.0227
CGCCTTCA	-0.129
AACTGGAA	0.0374
CCGCTTGC	0.234

Sequence	PBM E-score
AGCTCAGA	-0.143
CAGGTTCC	0.159
GGTCTTAC	-0.183
ACTTGGCC	-0.04
AATATGGA	-0.0276
ATACAGCC	-0.0331
CACCCCGC	0.273
ACGCACCT	-0.00592
CTTGTGAC	-0.0992
ATGGACCG	0.126
CCATACCA	0.0245
CATGGTTC	0.168
ATTGAGGC	0.0344
CTGTATGC	-0.191
GAAAGATC	0.0565
GGGGGGAA	-0.101
CAATGAGG	-0.256
AGTGCTAT	-0.232
CAATAGGC	-0.0689
GGAAGGTA	0.158
GAGTAACC	0.0807
GAGGGGCA	-0.15
TGTATGAA	0.149
AACTTCAT	0.0233
GGGATTCA	0.166

Sequence	PBM E-score
CCTGTTCG	0.0636
CTCGTATA	-0.198
CCACCTCG	0.084
ACTGCCTA	-0.187
AAAAGTAA	0.00938
CCGAAAGG	0.166
CACGACGG	0.243
CGATAGCC	-0.049
AGGTGAAT	0.0812
ACATCCAG	-0.105
AAGGCGCA	-0.0103
AGAGAAAC	-0.178
CCAATGCA	-0.126
GTAAACGA	-0.15
AACCGGCC	0.203
GTGACTGA	-0.106
GCGAGAAA	-0.0403
CTGGGGCA	-0.276
TAACGTCA	-0.206
AGAACCCC	0.0659
GGCACAGA	0.0327
AGCCGCCT	0.00711
CGCGGACG	0.342
ACTCTGAT	-0.0309
ACTGGCGC	0.0452

Sequence	PBM E-score
CCCTTCTA	-0.133
ATTGAACG	-0.108
ATCGTTGC	-0.136
CTGGTAAA	-0.167
ACGCTTTG	-0.00224
GCTATCCC	0.0292
CAGCCTAG	-0.0778
AAGCAAAT	-0.188
ATCACGAG	-0.285
AGGACCAG	-0.0599
AGCGTAAG	-0.0892
CATGTCGC	-0.0537
AGCTAGGC	-0.136
ACGTCCCA	-0.176
ACTGCGAA	-0.212
AGGGTAGA	-0.293
GGTACGGA	0.29
ATGACTAC	-0.177
CTAAGCGA	-0.197
CCAGTAAG	-0.158
GCTCCTAC	-0.154
GCGCAGCA	-0.207
GCAGCGAC	-0.0549
GGTTGCCA	0.233
AGCCCCCG	0.0472

Sequence	PBM E-score
ACAAGATA	-0.0778
CGCCAACG	0.0596
GGACGGAA	0.429
AGTTTGTC	-0.148
ATCGCTAC	-0.0447
ACGGTATG	0.0196
AGTTACCG	0.216
TGAACCAA	-0.0189
AAATCAAA	-0.0314
ATCTATAG	-0.139
CTGATCCA	-0.00794
ACATCAAG	-0.0572
CGCGCTCC	0.308
GAGTGCTA	-0.0621
AACTCCGG	0.416
GCGTATAA	0.00264
GTAGACAA	-0.0289
CATATTCG	-0.00831
ACATCTGG	-0.101
GAAGGAGC	-0.327
CTCCACGA	-0.144
GAATTGAC	-0.0293
